Test results reported in PMC6451091.
Some of the results follow. The protein was read in a cell extract, so binding may be indirect.

Each sequence was assayed on PU.1 (endogenous, THP-1 nuclear extract) + IRF8 (endogenous, THP-1 nuclear extract) (assay: nuclear extract protein-binding microarray (nextPBM)). Conditions: 20 mM HEPES pH 7.9, 100 mM NaCl, 1 mM DTT, 0.2 mg/mL BSA, 0.02% Triton X-100, 2% milk, 0.4 mg/mL salmon testes DNA; 1 h; temperature not stated; high values mean tight binding; double strand, one strand shown; sequences stand for … in GCCTAGCAC…GTGCTAGGTCTTGATTCGCTTGACGCTGCTG.
Sequence AGGGGAGAGAAGTGAAAGTG has a binding signal of 17.1 z-score. CTGGGTGGGAAGTGAAAGTA showed a binding signal of 21.4 z-score. GCCTTGGGGAAGTGAAACTT gave a binding signal of 49.2 z-score. AAAAAAAGGAAATGAAGGTA showed a binding signal of 0.886 z-score. Sequence CTGCCTGGGAAGTGAAAGCA has a binding signal of 5.14 z-score. Sequence CTGGCAGGGAACTGAAACGC has a binding signal of -0.533 z-score. Sequence TGAAACAGGTAGTGAAACCA has a binding signal of 24.7 z-score. GAAAGAGGGAAGTGAAAGTC gave a binding signal of 28.4 z-score. TGAGAGGAGATGTGAAACCT showed a binding signal of 10.8 z-score. CTGACAGGGAAGTGAAAGCA was tested, and the binding signal was 7.74 z-score. CTGCCAGGGAAGTGAATGCA was tested, and the binding signal was 0.735 z-score. For TAAAGGAGGAACTGAAACCA, the binding signal was 37.6 z-score. AAAACAAGGAAATGAAAGTA was tested, and the binding signal was 12.7 z-score. In the case of AAAAAGAGGAAGAGAAACTT, the binding signal is reported as 14.9 z-score. AGAAACAGGAAGAGAAACTA gave a binding signal of 11.6 z-score. TGAGAGGAGAAGTGAAGCCT was tested, and the binding signal was 0.0852 z-score. In the case of AAAATGAGGAAGAGAAACTG, the binding signal is reported as 13.7 z-score. GGAAAGAGGAAGAGAAACTG showed a binding signal of 14.9 z-score. Work on CTGCCAGGAAAGTGAAAGCA yielded a binding signal of 8.37 z-score. With TGAACCAGGAAGTGAAACCA the binding signal was 59.7 z-score. For CAAAAGAGGAAGAGAAACTG, the binding signal was 13.9 z-score. In the case of CTGCCAAGGAAGTGAAAGCA, the binding signal is reported as 6.01 z-score. With TGGCAGAGGAAGTGGAACTA the binding signal was 1.48 z-score. TGAAACAGGAAGGGAAACCA was tested, and the binding signal was 3.04 z-score. Work on AAAAAAAGGAAATGATAGTA yielded a binding signal of -0.762 z-score. GATAAGAGGAACAGAAAGCT gave a binding signal of 0.649 z-score. GAAAAGAGGATGTGAAACTT was tested, and the binding signal was 48 z-score. TGAAACAGGAAGTGAAACCG was tested, and the binding signal was 65.1 z-score. TGGCAGAGGAAGTGAAACAA gave a binding signal of 9.6 z-score. TAACGGAGGAACTGAAACCA showed a binding signal of 16.1 z-score. With TAAAGGAGGAGCTGAAACCA the binding signal was 2.11 z-score. With CTGCCAGGTAAGTGAAAGCA the binding signal was 2.35 z-score. GATAAGAGGAGCTGAAAGCT was tested, and the binding signal was -0.214 z-score.
